Test results: the RNAGym collection of RNA variant scans (doi:10.1101/gad.245936.114)
Variants at the floor of the assay are shown more often than the library holds them.

B1: tRNA (parent)
chain: CUCUCGGUAGCCAAGUUGGUUUAAGGCGCAAGACUUUAAUUUAUCACUACGAAAUCUUGAGAUCGGGCGUUCGACUCGCCCCCGGGAGAUUUUUUCCUCGAGCAA

Variants of: B1
Assay: nonsense suppression (GFP-seq) (ratio to wild type); higher = more function; SUP4oc tRNA, yeast GFP reporter sort-seq
In short: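 Each variant's nonsense suppression (GFPSEQ) is a cell-share-weighted bin median GFP/RFP relative to the unmutated parent tRNA. Yeast with genome-integrated tRNA variants from a ~3% random-mutation library, a galactose-driven GFP ochre reporter and RFP were grown in raffinose/galactose medium with 80 mg/L adenine, then sorted into GFP/RFP bins for Illumina sequencing. Variants needed ≥100 reads and ≥30 cells.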
With C5A A31C C82U the nonsense suppression was at most 0.026. With C5A A33G C34U A60G the nonsense suppression was at most 0.026. With C5A A60C C72G G85U the nonsense suppression was at most 0.026. With C5A A60G the nonsense suppression was 0.0265. Variant C5A A89C has a nonsense suppression of at most 0.026. Work on C5A C11A U35G G66A yielded a nonsense suppression of at most 0.026. With C5A C11G A23C U55A G59C C79G the nonsense suppression was at most 0.026. Work on C5A C11U U21C A31G G59C yielded a nonsense suppression of at most 0.026. For C5A C12U G18U U70A C79G, the nonsense suppression was at most 0.026. With C5A C29A the nonsense suppression was at most 0.026. With C5A C29A G65C U76A the nonsense suppression was at most 0.026. Variant C5A C29G C75G has a nonsense suppression of at most 0.026. With C5A C29G C80G the nonsense suppression was at most 0.026. With C5A C34G G65A C80G the nonsense suppression was at most 0.026. C5A C34G G73C gave a nonsense suppression of at most 0.026. Work on C5A C64A C77A yielded a nonsense suppression of at most 0.026. Work on C5A C64A U71A C75A C80G yielded a nonsense suppression of at most 0.026. Variant C5A C68A has a nonsense suppression of at most 0.026. Work on C5A C75A yielded a nonsense suppression of at most 0.026. Variant C5A C75A C82A has a nonsense suppression of at most 0.026. Variant C5A C75G C83U has a nonsense suppression of at most 0.026. Work on C5A C75U yielded a nonsense suppression of at most 0.026. C5A C77A gave a nonsense suppression of at most 0.026. Variant C5A C77G has a nonsense suppression of at most 0.026. C5A C79G G86U gave a nonsense suppression of at most 0.026. Work on C5A C80A G88A yielded a nonsense suppression of at most 0.026. Work on C5A C81A yielded a nonsense suppression of at most 0.026. For C5A C82G, the nonsense suppression was at most 0.026. With C5A G6C the nonsense suppression was at most 0.026. C5A G6C C56U U76A showed a nonsense suppression of at most 0.026. With C5A G6U A9G C11A C12G G25U G66U the nonsense suppression was at most 0.026. In the case of C5A G6U G7U, the nonsense suppression is reported as at most 0.026. With C5A G7U A23U G25U U71A the nonsense suppression was at most 0.026. Work on C5A G7U C72G yielded a nonsense suppression of at most 0.026. With C5A G7U G86A the nonsense suppression was at most 0.026. Variant C5A G10A C68U C72U has a nonsense suppression of at most 0.026. For C5A G10A G15U C34G, the nonsense suppression was at most 0.026. With C5A G15U A24G the nonsense suppression was at most 0.026. For C5A G18A, the nonsense suppression was at most 0.026. For C5A G18C A54C, the nonsense suppression was at most 0.026. With C5A G18U the nonsense suppression was at most 0.026. With C5A G19A the nonsense suppression was at most 0.026. Work on C5A G25C A33G yielded a nonsense suppression of at most 0.026. With C5A G25C A74U the nonsense suppression was at most 0.026. For C5A G25U C29U A60C, the nonsense suppression was at most 0.026. With C5A G26A U57C G73A A74C the nonsense suppression was at most 0.026. C5A G28C gave a nonsense suppression of at most 0.026. Variant C5A G28U has a nonsense suppression of at most 0.026. With C5A G59C the nonsense suppression was at most 0.026. For C5A G66U G85A, the nonsense suppression was at most 0.026. Variant C5A G73C has a nonsense suppression of at most 0.026. For C5A G78C, the nonsense suppression was at most 0.026. Variant C5A G78U A89C has a nonsense suppression of at most 0.026. Work on C5A G78U C81G yielded a nonsense suppression of at most 0.026. Work on C5A G85C yielded a nonsense suppression of at most 0.026. C5A G88A gave a nonsense suppression of at most 0.026. For C5A G88U, the nonsense suppression was at most 0.026. In the case of C5A U8C, the nonsense suppression is reported as at most 0.026. Variant C5A U8C G10C G65A C77A has a nonsense suppression of at most 0.026. C5A U8G U20C G65A gave a nonsense suppression of at most 0.026. Variant C5A U16A A60U has a nonsense suppression of at most 0.026. In the case of C5A U16A U21G, the nonsense suppression is reported as at most 0.026. With C5A U17C C56G C79G G85U G88A A89C the nonsense suppression was at most 0.026. Work on C5A U17C G84A yielded a nonsense suppression of at most 0.026. C5A U17G showed a nonsense suppression of at most 0.026. With C5A U17G C68G the nonsense suppression was at most 0.026. C5A U20G G88A gave a nonsense suppression of at most 0.026. In the case of C5A U21C C79G, the nonsense suppression is reported as at most 0.026. For C5A U22C A74C, the nonsense suppression was at most 0.026. C5A U22C G78U gave a nonsense suppression of at most 0.026. Work on C5A U35C U55A C80U yielded a nonsense suppression of at most 0.026. Variant C5A U55A has a nonsense suppression of at most 0.026. For C5A U55C U76G, the nonsense suppression was at most 0.026. C5A U55G G66C showed a nonsense suppression of at most 0.026. For C5A U71G A74U, the nonsense suppression was at most 0.026. For C5A U76C, the nonsense suppression was at most 0.026. In the case of C5A U76C G86C, the nonsense suppression is reported as at most 0.026. C5G A9C G15U A30U U58G G61A gave a nonsense suppression of at most 0.026. C5G A9C G85A showed a nonsense suppression of at most 0.026. Variant C5G A9U A33C has a nonsense suppression of at most 0.026. C5G A13U C68G G86C gave a nonsense suppression of at most 0.026. With C5G A13U U35G A74C the nonsense suppression was at most 0.026. C5G A14G A60C gave a nonsense suppression of at most 0.026. With C5G A14G C80U the nonsense suppression was at most 0.026.
